The values that follow come from paper PMC11924945, “The human CD47 checkpoint is targeted by an immunosuppressive Aedes aegypti salivary factor to enhance arboviral skin infectivity” (Science immunology, 2024).

For the assay, the target named is T1, Aedes aegypti Nest1 (neutrophil-stimulating factor 1), recombinant, amino acids 22 to 316 (A. aegypti, UniProt Q17F11 22-316, biotin (BirA500 kit) in the yeast library screen).
T1 construct: Nest1 (AAEL003601), 34-kDa salivary protein of A. aegypti, amino acids 22 to 316 (without its secretion signal peptide; H7 leader of the vector pEZT-Dlux upstream); also called rNest1; Nest1-his; source: Expi293 cells, transfected, purified from supernatant (Ni-NTA; for SPR also SEC); not shown: AviTag, C-terminal, kept; 8X His, C-terminal, kept
T1 sequence: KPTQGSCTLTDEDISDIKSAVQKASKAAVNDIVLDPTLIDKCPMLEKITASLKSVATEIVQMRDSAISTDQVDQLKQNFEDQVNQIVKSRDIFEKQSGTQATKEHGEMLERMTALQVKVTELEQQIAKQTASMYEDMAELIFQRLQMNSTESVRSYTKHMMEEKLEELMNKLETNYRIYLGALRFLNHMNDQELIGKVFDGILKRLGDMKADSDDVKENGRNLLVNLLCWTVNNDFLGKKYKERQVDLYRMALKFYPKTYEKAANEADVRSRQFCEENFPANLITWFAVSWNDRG
In words: SPR; BIAcore T200, Biotin CAPture kit; biotinylated CD47-Fc immobilised at low density, serial dilutions of Nest1, single-cycle kinetics, 120 s association, 60 s dissociation, HBS-P+ buffer, 25°C, 30 μl/min, 1:1 Langmuir model. As to conditions: both partners purified. A general note: SPR reads the build-up and loss of mass on a sensor chip optically.

B1: human CD47 ([…]) tagged with human immunoglobulin G1 Fc (N297A) (Fc fusion)
chain: not shown
modifications: biotin (NHS-biotin, 10-fold molar excess) in SPR
notes: CD47, human, […]; Purification is told for the SPR sample; also called CD47-Fc; source: Expi293 cells, purified (protein A agarose, SEC)
As for B1, the Kd (as a rule, the concentration at which binding is half-saturated) was ~38 nM.
